Results reported in PubChem BioAssay (NCI).
Several values for one entry are separate records, joined by “and”; a condition that tells them apart may be missing. Equal entries are not always repeated.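 Grown in 96-well plates, cells were treated for 48 hours with each compound at five concentrations. Insufficient inhibition: endpoint recorded as highest concentration tested. GI50 = concentration required for 50% inhibition of growth. TGI marks complete inhibition of growth.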

Test system: NCI-H322M lung
Test: NCI tumour cell line growth inhibition, 48 h

CCOC(=O)n1c(=O)nc2c3c(ncn21)Oc1c(c(-c2ccccc2)nn1-c1ccccc1)C3c1ccc(Cl)cc1 (stereo not given)
TGI: 2.68 µM

CCn1c(O)c(C(=O)Nc2cccs2)c(=O)n(CC)c1=S
TGI: 63.4 µM

CC1(C)OC2OC(/C=C/[N+](=O)[O-])C3OC(C)(C)OC3C2O1 (stereo not given)
TGI: 31.7 µM

COc1cccc(O)c1-c1cc(=O)c2c(O)c(OC)c(OC)c(OC)c2o1
TGI: > 100 µM

COc1cc(N(CCC#N)CCC#N)ccc1/C(N=Nc1cccc([N+](=O)[O-])c1)=N\NC(=O)c1ccc(C)cc1
TGI: > 100 µM

CSc1ccc(/C=C2\N=C(c3ccccc3)N(NC(=O)c3c(Cl)c(Cl)c(Cl)c(Cl)c3-c3nc4ccccc4[nH]3)C2=O)cc1
TGI: > 100 µM

CN(C)c1ccc(-c2cc(-c3cccc(NS(C)(=O)=O)c3)nc(N)c2C#N)cc1
GI50: 0.597 µM | TGI: > 78.3 µM

N#Cc1cccc(C2SCc3nc4ccccc4n32)c1 (stereo not given)
TGI: > 100 µM

CC[C@H]1CNC(=O)CC1CC(=O)OC (stereo not given in full)
TGI: > 100 µM

NS(=O)(=O)c1ccc(NNc2c3ccccc3nc3c(C(=O)Nc4ccc(S(N)(=O)=O)cc4)cccc23)cc1
TGI: > 100 µM

O=C(O)CN1CCN2CCOCCN(CC1)CCN(CC(=O)O)CC2
TGI: > 100 µM

Cc1cc(C)c(CNC(=O)c2cc(Cl)c3c(c2C)O[C@@](C)(C2CCC(N(C)C)CC2)O3)c(=O)[nH]1 (stereo not given in full)
GI50: > 100 µM | TGI: > 100 µM

CC(C)C1CC(CO)(CNc2nc(N)nc(Cl)c2C=O)C1 (stereo not given)
TGI: 10.5 µM

C/C(=C\COP(=O)(O)CP(=O)(O)O)CC/C=C(\C)CNc1ccccc1
TGI: > 100 µM

N#CC1(C2CC(=O)N(c3ccccc3)C2=O)CCCCC1=O (stereo not given)
TGI: > 100 µM

COc1ccc(C2OC2C(=O)C23CC4CC(CC(C4)C2)C3)cc1 (stereo not given)
TGI: > 100 µM

CCCCCCCCCCCCCCCCCCCCCCC(=O)N[C@H]1CCc2cc(OC)c(OC)c(OC)c2-c2ccc(SC)c(=O)cc21
TGI: > 100 µM

CS(=O)(=O)Sc1ccc(Cl)cc1
TGI: 32.4 µM

COc1ccc(Cc2c3cc(OC)c(OC)cc3cc[n+]2C)cc1
TGI: > 55.7 µM

N#CSc1c[nH]c2cccc(/C=C/C(=O)/C=C(O)/C=C/c3cccc4[nH]cc(SC#N)c34)c12
GI50: 0.981 µM | TGI: 4.22 µM

Fc1cnccc1-c1nc2ccc3[nH]ncc3c2c2c1CCCC2
GI50: 1.83 µM | TGI: > 100 µM

CC1(C)OC(COP2OCCO2)[C@H](COP2OCCO2)O1 (stereo not given in full)
TGI: > 100 µM

COc1cc(-c2nn(-c3cccc(NC(=O)NCCNC(=O)c4ccccc4)c3)cc2-c2ccncc2)ccc1Cl
GI50: 6.16 µM | TGI: > 100 µM

COC(=O)N1C=Cc2c(c(C)c3c([nH]c4ccccc43)c2C)C1C (stereo not given)
TGI: 33.8 µM

COc1ccc(CCN2C(=O)C(=O)C(C(=O)c3ccccc3)C2c2ccccc2)cc1OC (stereo not given)
TGI: > 100 µM

CC12CCC(C(=Nc3ccc([N+](=O)[O-])cc3)C1=O)C2(C)C (stereo not given)
TGI: > 100 µM

O[C@@H]1CCCCN1Cc1cc2cc3c(cc2c2cc(OCc4ccccc4)ccc12)OCO3
GI50: 2.11 µM | TGI: 4.4 µM

COc1nc2c(c(=O)[nH]1)N=C(c1ccc([N+](=O)[O-])cc1)CC(c1ccccc1)N2 (stereo not given)
TGI: > 100 µM

CCOC(=O)c1sc(N)nc1N1CCCC1
TGI: > 100 µM

NC(C(=O)O)C(O)c1cnc[nH]1 (stereo not given)
TGI: > 100 µM

N#Cc1nc(CCC(C(=O)O)N2C(=O)c3ccccc3C2=O)oc1N (stereo not given)
TGI: > 100 µM

CC(=O)[O-].O=C([CH-]C(=O)c1ccccc1)c1ccccc1.O=C([CH-]C(=O)c1ccccc1)c1ccccc1.[Dy+3]
GI50: 12.3 µM | TGI: 58.5 µM

C[C@H](O)CCC(=O)c1ccoc1
TGI: > 100 µM

CC(=O)Nc1ccc(S(=O)(=O)N2C(=O)CCC2C(=O)Nc2ccccc2)cc1 (stereo not given)
GI50: 3.39 µM | TGI: 26.1 µM

O=C1N(c2ccccc2)C2(O)C(=O)c3ccccc3C2(O)N1c1ccccc1 (stereo not given)
TGI: > 100 µM

NC1=Nc2cc(OCCCCN3Cc4ccccc4C3)c(OCC3CC3)cc2C12CCCC2
GI50: 2.73 µM | TGI: 9.37 µM

CC1(C)CCC(c2ccc(Cl)cc2)=C(CN2CCN(c3ccc(C(=O)NS(=O)(=O)c4ccc(N[C@H](CCN5CCOCC5)CSc5ccccc5)c(S(=O)(=O)C(F)(F)F)c4)cc3)CC2)C1
GI50: 1.85 µM | TGI: 4.45 µM

COC(=O)[C@@H](N1C(=O)c2ccccc2C1=O)C1(C)CC(Cl)=NO1 (stereo not given in full)
TGI: > 100 µM

O=c1[nH]c2ccccc2c(=O)c2cc3ccccc3cc12
TGI: > 100 µM

C(#C[C@@]12CCC[C@@H]1NCO2)c1ccc2c(c1)OCO2
TGI: > 100 µM

O=C1C(=C2C(=O)c3ccccc3[N+]2=O)N([O-])c2ccccc21
TGI: > 100 µM

CC(C)c1c(C(=O)Nc2ccccc2)c(-c2ccccc2)c(-c2ccc(F)cc2)n1CC[C@@H](O)C[C@@H](O)CC(=O)O
GI50: 39.9 µM | TGI: > 100 µM

CSc1cnc2ccccc2c1Sc1cn(C)c2ccccc2c1=O
TGI: 71 µM

CC1=C(C(N)=O)C(c2ccncc2)C(C#N)C(=O)N1 (stereo not given)
TGI: > 100 µM

COC(=O)C(Cc1ccc2c(c1)OCO2)(NC(=O)c1ccccc1)P(=O)(OC)OC (stereo not given)
TGI: > 100 µM

BrC(/C=N/Nc1nnc(-c2ccccc2)c(-c2ccccc2)n1)C(Br)c1ccccc1 (stereo not given)
TGI: > 100 µM

CC(C(=O)NCNC(=O)c1ccccc1)C(=O)NCc1ccccc1 (stereo not given)
TGI: > 100 µM

Cc1nn(-c2ccccc2)c2c1[C@@H](C)[C@H]1CC3(CC4(C)C[C@@H]3C1(C)c1c(C)nn(-c3ccccc3)c1N4C)N2C (stereo not given in full)
GI50: > 100 µM | TGI: > 100 µM

O=C(NNC(=O)c1cc2ccccc2[nH]1)c1cc2ccccc2[nH]1
TGI: > 100 µM

N#CC(NNC(=O)c1ccccc1O)c1ccccc1O (stereo not given)
TGI: > 100 µM

O=C(/C=C/c1ccccc1)c1ccccn1
GI50: 17.5 µM and 44.2 µM | TGI: 31.3 µM and > 100 µM

C[N+](C)(C)CC(=O)N/N=C\c1c(O)ccc2ccccc12
TGI: > 100 µM

O=C(c1ccccc1)N1CCc2c([nH]c3ccccc23)C1
TGI: > 100 µM

CC(C)OP(=O)(OC(C)C)C(=Nc1ccc(N=C(NNc2ccc([N+](=O)[O-])cc2)P(=O)(OC(C)C)OC(C)C)cc1)NNc1ccc([N+](=O)[O-])cc1
TGI: > 100 µM

C=CC(C)(C)[C@@]12CC3C(=O)N[C@@H](Cc4ccccc4)C(=O)N3[C@@H]1N(C(C)=O)c1ccccc12 (stereo not given in full)
TGI: > 100 µM

O=C(/C=C/c1c[nH]c2ccccc12)c1ccccc1O
TGI: 23.6 µM

CC(C)CCNC(=O)c1ccc(CNC(=O)/C=C/c2ccc3c(c2)-c2ccccc2C3)cc1
TGI: > 100 µM

COC(=O)c1c(C(=O)OC)c2ccccn2c1-c1cc(C)cc2c1C(=O)C=CC2=O
TGI: 20.7 µM

COc1ccc2c(c1)c(-c1nc(-c3cn(C)c4ncccc34)cs1)cn2CCCCN1CCCCC1
GI50: 1.65 µM | TGI: 3.06 µM

CC(=O)C1=C(C)N2C(=NC3=C(CCc4ccccc43)C2c2ccc(Cl)cc2)S1 (stereo not given)
TGI: > 100 µM

c1c[nH]c(CN2CCN(Cc3ncc[nH]3)CC2)n1
TGI: > 100 µM

C/C(=N\NC(N)=S)c1ccc(Oc2ccccc2)cc1
TGI: 33.4 µM

COc1cc2c(cc1O)CCN[C@@]21CS[C@H]2c3c(OC(C)=O)c(C)c4c(c3C(COC1=O)N1C2C2NC(Cc3cc(C)c(OC)c(O)c32)[C@@H]1C#N)OCO4 (stereo not given in full)
TGI: < 0.01 µM

CCOP(=O)(OCC)/C(F)=C/c1ccc(F)cc1
TGI: > 100 µM

C[C@H]1CC(=O)C[C@@H]2CC[C@@H]3[C@H](CC[C@]4(C)C(OC(=O)c5cccc6c(=O)c7ccccc7[nH]c56)CC[C@@H]34)[C@]21C (stereo not given in full)
TGI: > 100 µM

CCN(CC)c1ccc(C=C2C(=O)NC(=S)NC2=O)cc1
GI50: 6.17 µM | TGI: 16.4 µM

CN1CC[C@H](N(C)C(=O)N2CC(c3cc(F)ccc3F)=C[C@@]2(CO)c2ccccc2)[C@H](F)C1
GI50: 0.00653 µM | TGI: > 100 µM

CC(C)c1cc(C(C)C)c(S(=O)(=O)N/N=C2\CC3CCC2(C)C3(C)C)c(C(C)C)c1 (stereo not given)
TGI: > 100 µM

O=[N+]([O-])C1=Cc2c(O)ccc(O)c2C2c3ccccc3NC12 (stereo not given)
TGI: 39.5 µM

CN1CN(c2ccccc2)C2(CCN(CCCN(C)c3ccc(F)cc3)CC2)C1=O
TGI: 40.5 µM

C=C(CN1CCc2ccccc2C1)c1ccc(C(=O)Nc2cccc(N)c2)cc1
GI50: 24.7 µM | TGI: 84.7 µM

CC(=O)OC(C(=O)NNC(=O)OC(C)(C)C)c1ccccc1 (stereo not given)
TGI: > 100 µM

O=C1Nc2ccc(I)cc2/C1=C/c1cc(Br)c(O)c(Br)c1
GI50: > 21.7 µM and 25.2 µM | TGI: > 72.9 µM

O=C(CNC(=O)c1cccc2ccccc12)Nc1ccccc1Oc1ccc(O)cc1
GI50: 1.16 µM | TGI: > 25 µM

O=c1[nH]c(-c2ccncc2)nc2sc3c(c12)CCCCCC3
GI50: > 100 µM | TGI: > 100 µM

Nc1ncnc2c1ncn2C1SC(CO)C(O)C1O (stereo not given)
GI50: 29.3 µM | TGI: 88.3 µM

CC(C)CC(=O)O[C@H]1C(=O)O[C@@H]2C[C@H]3[C@H](C)C(=O)C(O[C@@H]4O[C@H](CO)[C@@H](O)[C@H](O)[C@H]4O)=C[C@]3(C)[C@H]3[C@@H](O)[C@H](O)[C@]4(C(=O)O)OC[C@]32[C@@H]14
GI50: > 100 µM | TGI: > 100 µM

COc1ccc(Cc2nc3cc(C(F)(F)F)ccc3n2C[C@@H]2CCCN3CCCCC23)cc1 (stereo not given in full)
TGI: 27.6 µM

CCOc1ccc(/C=C/C(=O)c2sc(NNC(C)=O)nc2C)cc1
TGI: > 100 µM

CC(C)=CCN1c2ccccc2[C@@]2(CC=C(C)C)CCN(C)[C@@H]12
TGI: > 100 µM

CC(=O)O[C@@H]1[C@H]2O[C@H]2[C@H]2O[C@@]2(COC(=O)c2ccccc2)[C@H]1OC(C)=O
TGI: > 100 µM

FC(F)(F)c1ccc2c(c1)nc(Cc1ccc(Cl)cc1)n2CC1CCCN2CCCCC12 (stereo not given)
TGI: 24.8 µM

COC(=O)[C@@H](C)C[C@H](Cc1ccccc1)NC(=O)c1nc([C@@H](C[C@H](C(C)C)N(C)C(=O)[C@@H](NC(=O)[C@H]2CC(=O)CCN2C)C(C)C)OC(C)=O)sc1C(C)C
GI50: 0.623 µM | TGI: > 16.7 µM

Nc1ccc(Oc2ccc(C3(c4ccc(Oc5ccc(N)c(O)c5)cc4)C4CC5CC(C4)CC3C5)cc2)cc1O
TGI: 2.64 µM

Cc1nnc(NS(=O)(=O)c2ccc(N=Nc3c(O)c(C(=O)O)cc4ccccc34)cc2)s1
TGI: > 100 µM

CCOC(=O)c1c2ccccc2n2c(=O)n(-c3ccccc3)nnc12
TGI: > 100 µM

Nc1nc(-c2ccccn2)c(-c2ccc3ncccc3n2)s1
GI50: > 25 µM | TGI: > 25 µM

N=C(N)c1ccc(-c2ccc(-c3cccs3)s2)cc1F
GI50: 0.735 µM | TGI: 2.29 µM

NS(=O)(=O)c1ccc(NCc2cccc3c(=O)c4ccc(Cl)cc4oc23)cc1
TGI: > 100 µM

Cc1n[nH]c(C)c1-c1c(C)n[nH]c1C
GI50: 2.94 µM | TGI: > 28.7 µM

CC1(C)CC[C@]2(C(=O)O)CC[C@]3(C)C(=CC[C@@H]4[C@@]5(C)C/C(=C/c6cccnc6)[C@H](O)C(C)(C)[C@@H]5CC[C@]43C)[C@@H]2C1
GI50: 3.99 µM | TGI: 45.3 µM

COc1cc(F)c(F)c(F)c1C(=O)c1cnc(NC2CCN(S(C)(=O)=O)CC2)nc1N
GI50: 2.2 µM | TGI: 21.1 µM
